Test results: PubChem BioAssay AID488969 (Vanderbilt High Throughput Screening Facility, 2010)
The full ranking holds about 110,000 compounds; the median of “z-score” is about -0.1, and the highest 2% start at about 2. The list shows a part of the results. Activity calls are given as the source filed them.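 The calls were made as follows: active = z-score in the third read window above 3 or below -3; inactive = the rest.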

target: Metabotropic glutamate receptor 8 (Rattus norvegicus) (UniProt P70579); assay: rat mGluR8 modulators via GIRK flux, primary screen, cell-based, thallium flux, HTS (AID 488969); settings: HEK293 rat mGluR8, GIRK (G protein-gated inwardly rectifying potassium channel) thallium flux, FluoZin2; at 10 µM; stronger effect = higher value; submaximal glutamate (EC20) added with thallium
Sequence of UniProt P70579 (P70579 whole entry, looked up): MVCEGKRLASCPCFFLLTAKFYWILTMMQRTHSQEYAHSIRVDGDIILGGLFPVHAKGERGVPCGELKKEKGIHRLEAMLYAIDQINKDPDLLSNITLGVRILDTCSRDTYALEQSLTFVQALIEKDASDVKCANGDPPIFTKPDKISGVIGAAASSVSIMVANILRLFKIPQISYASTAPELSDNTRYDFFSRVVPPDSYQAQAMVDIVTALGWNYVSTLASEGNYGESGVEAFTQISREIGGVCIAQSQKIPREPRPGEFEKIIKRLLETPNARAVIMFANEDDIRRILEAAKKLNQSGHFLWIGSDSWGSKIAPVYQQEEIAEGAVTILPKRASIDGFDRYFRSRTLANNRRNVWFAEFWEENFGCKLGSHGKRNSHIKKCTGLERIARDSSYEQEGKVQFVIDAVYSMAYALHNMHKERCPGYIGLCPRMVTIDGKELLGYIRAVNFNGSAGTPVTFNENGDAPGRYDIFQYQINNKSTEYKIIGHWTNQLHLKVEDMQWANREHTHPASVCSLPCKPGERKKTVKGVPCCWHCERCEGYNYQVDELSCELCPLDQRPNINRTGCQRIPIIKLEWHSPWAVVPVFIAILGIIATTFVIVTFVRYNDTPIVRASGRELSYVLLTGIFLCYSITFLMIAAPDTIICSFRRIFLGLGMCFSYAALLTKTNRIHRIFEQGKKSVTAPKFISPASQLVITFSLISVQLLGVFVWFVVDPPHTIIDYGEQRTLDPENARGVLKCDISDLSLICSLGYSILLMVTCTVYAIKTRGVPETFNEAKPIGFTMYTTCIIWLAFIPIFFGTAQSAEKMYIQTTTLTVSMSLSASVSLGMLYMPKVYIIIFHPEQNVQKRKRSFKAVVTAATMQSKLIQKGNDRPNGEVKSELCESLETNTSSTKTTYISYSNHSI

SMILES	z-score
Cc1ccc(S(=O)(=O)n2ccc(-c3ccc(OCc4c(F)cccc4Cl)cc3)n2)cc1	-0.318
O=C(Nc1cccc(Cl)c1)N1CCSc2cc(Cl)ccc21	-0.148
Nc1nc(SCC(=O)Nc2ccccc2Sc2ccc(Cl)cc2)n[nH]1	-0.434
Cn1c(N)c(C(=O)c2cc(-c3ccccn3)nc3ccccc23)c(=O)[nH]c1=O	-0.00479
CCOP(=O)(c1ccccc1)C(O)c1ccccc1 (centres undefined)	0.189
Clc1ccccc1OCCn1ccnc1	-0.393
CC(C)C1=NN(C(=O)c2ccccc2)C(O)(C(C)(C)C)C1 (centres undefined)	-0.195
O=C(NNC(=O)c1ccccc1)C(=O)N1CCCCC1	0.421
Cc1ccc(Nc2nnc(SCC(=O)Nc3ccccc3[N+](=O)[O-])s2)cc1	-0.00778
Cc1ccc(/C(O)=C2\C(=O)C(=O)N(c3cc(C)on3)C2c2cccc(Br)c2)cc1 (centres undefined)	-2.98
Cc1ccc(C(=O)O/N=C\c2ccc(N3CCOCC3)c([N+](=O)[O-])c2)cc1	-0.0662
COc1ccc(CCNC(=O)Cn2cnc3c(nnn3Cc3ccc(C)cc3)c2=O)cc1OC	0.156
CCc1c(C)sc2nc(C(C)C)nc(SCC(=O)N3CCc4ccccc4C3)c12	0.286
CCOC(=O)c1ccc(CS(=O)c2ccc(Cl)cc2)o1 (centres undefined)	0.0909
COCCCn1c(CCC(=O)O)ccc1-c1ccc(F)cc1	-0.32
O=C(CCc1ccccc1O)N/N=C/c1ccc(Sc2cccc3cccnc23)o1	0.341
Cc1cc(C(=O)NCc2cccs2)cs1	0.301
COc1ccccc1-n1c(C)cc(SC)c(C(C)=O)c1=S	-0.217
COc1ccc(/C=N/NC(=O)c2ccc3ccccc3c2)cc1OS(=O)(=O)c1ccc(NC(C)=O)cc1	-0.25
O=C(O)C1CC(=O)N(c2ccc(OCc3c(F)cccc3Cl)cc2)C1 (centres undefined)	-0.212
COc1cc2c(cc1NC(=O)CCCN1C(=O)CCC1=O)oc1ccccc12	-0.139
Cc1cc(C)c2c(c1)cc(C)c1nnc(SCC(=O)N3CCCc4ccccc43)n12	0.0302
CC1Cc2ccccc2N1C(=O)c1cnc2n(c1=O)CCS2 (centres undefined)	0.27

SMILES	z-score
Cc1c(C(=O)N2CCCCC2)oc2ccc(S(=O)(=O)N3CC(C)CC(C)C3)cc12 (centres undefined)	0.235
CCOc1ccc(NC(=S)Nc2ccc(OCc3ccccc3)cc2)cc1	0.269
Cc1nc2ccccc2nc1OCC(=O)NCc1ccc2c(c1)OCO2	-0.119
COc1cc(OC)cc(C(=O)NNC(=O)c2ccccc2Br)c1	1.21
CCCN1C/C(=C/c2ccc3c(c2)OCO3)C(=O)/C(=C/c2ccc3c(c2)OCO3)C1	-0.565
CCOC(=O)CSc1nc2ccc(Nc3nc(N4CCOCC4)nc(N4CCOCC4)n3)cc2s1	active: -3.54
CCn1c(CC(=O)Nc2ccc(C)c(Cl)c2)nnc1SCc1ccc(Cl)c(Cl)c1	1.63
O=C(CCS(=O)(=O)c1cccc2nsnc12)N1CCN(c2ccccc2F)CC1	0.0952
Cc1ccc(C2NC(=S)NC3=C2N2CCC3CC2)cc1 (centres undefined)	-0.905
Cc1ccc(/C=N/NC(=O)c2ccoc2C)o1	-2.59
O=C(Nc1ccc2c(c1)CCC2)c1cnn2c1NC(c1ccco1)CC2C(F)(F)F (centres undefined)	-0.0955
CCc1cc2c(SCC(=O)c3cccs3)ncnc2s1	0.0546
CCOC(=O)c1sc(=S)n(-c2cc(F)ccc2F)c1N	0.378
CCOc1ccc(NC(=O)N2CCC(n3nnc4cc(C)ccc43)CC2)cc1	-0.0596
CN1CC(=O)N(CC(=O)NCc2ccc3c(c2)OCO3)C1=O	-0.14
Cc1ccc(S(=O)(=O)Cn2nnnc2C(C(C)C)N2CCN(C(=O)c3ccco3)CC2)cc1 (centres undefined)	-0.299
Cn1ncc(Cl)c1C(=O)N1CCc2ccccc21	-0.142
C=CCOc1ccc(/C(O)=C2/C(=O)C(=O)N(CCCN3CCOCC3)C2c2ccccc2)cc1 (centres undefined)	0.258
C=CCn1c(Cc2ccc(OC)cc2)nnc1SCc1nc2ccccc2c(=O)[nH]1	-0.334
CCOc1ccc(-c2nn(-c3ccccc3)cc2/C=C(\C#N)S(=O)(=O)c2ccccc2)cc1C	0.265
N=c1c(S(=O)(=O)c2ccccc2)cc2c(=O)n3ccccc3nc2n1CC1CCCO1 (centres undefined)	-0.579
O=S(=O)(NCCOc1cccc2cccnc12)c1ccc(F)cc1	-0.153
COc1cc([N+](=O)[O-])ccc1NC(=O)Nc1nc2c(s1)CCCC2	-0.0831

SMILES	z-score
CCn1c(CNC(=O)Cc2ccc(OC)cc2)nnc1SCC(=O)Nc1nccs1	-0.181
CC(=O)N1CCN(C(=O)c2cccc(S(=O)(=O)Nc3ccc(C)cc3)c2)CC1	-0.477
CCOC(=O)c1nn(-c2ccccc2)c2nc(Nc3ccccc3)cc(=O)n12	-0.146
Cc1ccc(Oc2ccc(OCC(=O)OC3CCS(=O)(=O)C3)cc2)cc1 (centres undefined)	0.257
Cc1oc2ccccc2c1-c1cn2c(n1)SCC2	-0.0376
Cc1cc(NCc2ccccc2)nc2ccccc12	1.3
Cc1ccc(-c2noc(-c3cc4ccccc4oc3=O)n2)cc1	-0.185
Cc1cc(NC(=O)CSc2nc3c(sc4ccccc43)c(=O)n2CCc2ccccc2)n[nH]1	0.145
CC(C)OP(=O)(OC(C)C)C1(O)C(=O)Nc2ccccc21 (centres undefined)	-0.0437
CN(C)CCNc1oc(-c2ccccc2F)nc1C#N	-0.282
COc1cc(/C=N/NC(=O)c2ccc(F)cc2)ccc1OC(=O)c1ccco1	0.177
C/C(CC(=O)Nc1ccc(N(C)C)cc1)=N\NC(=O)Cc1csc(N)n1	-0.244
Cc1c(NC(=O)c2ccc3c(c2)C(=O)N(CC2CCCO2)C3=O)cccc1C(=O)O (centres undefined)	-0.0528
COc1ccc(N(CCC#N)S(=O)(=O)c2ccc(Cl)cc2)cc1	-0.234
Fc1ccc(N=C2NN=C(c3cc(F)ccc3F)CS2)cc1	0.593
O=C(N/N=C/c1ccccc1Cl)c1n[nH]c2c1CCCC2	-0.191
CCOC(=O)C1=C(N)c2ccccc2CC1C(C)C (centres undefined)	-0.175
CC1=C(C(=O)N2CCOCC2)C(c2cccc3ccccc23)NC(=S)N1 (centres undefined)	-0.194
CC1=C(C)CC(C(=O)NNC(=O)c2ccccc2)C(C(=O)O)C1 (centres undefined)	-0.0266
C=C(C)Cn1c(SCC(=O)NCc2ccco2)nc2sc3c(c2c1=O)CCC3	-0.558
CSc1nnc(Cn2c(=O)sc3ccccc32)n1CCc1ccccc1	-0.0459
Cc1ccc(CNc2nc3ccccc3s2)s1	-0.103
CCCCCCCCC/C(=N\O)c1ccccn1	-0.0604
